The text below walks through data of PubChem BioAssay AID1240 (Sanford-Burnham Center for Chemical Genomics, 2008).

The structures appear in SMILES notation. The whole screen tested about 50,000 compounds, of which about 800 (1.6%) showed an effect of 50% or more. The list shows a part of the results.

This assay has as its target Bcl-2-like protein 10 (Homo sapiens) (UniProt Q9HD36). Description: Phenotype converters, Bcl-B/TR3 peptide binding displacement, primary biochemical FP (AID 1240).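 Further: 0% = Bcl-B with tracer peptide and DMSO and 100% = tracer peptide lacking Bcl-B.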 The following applies: GST-Bcl-B / FITC-TR3 peptide fluorescence polarization; stronger effect = higher value; compound at 3.75 mg/L. A general note: Polarisation of emitted light reports the rotation of a fluorescent probe.
Sequence of UniProt Q9HD36 (Q9HD36 whole entry, looked up): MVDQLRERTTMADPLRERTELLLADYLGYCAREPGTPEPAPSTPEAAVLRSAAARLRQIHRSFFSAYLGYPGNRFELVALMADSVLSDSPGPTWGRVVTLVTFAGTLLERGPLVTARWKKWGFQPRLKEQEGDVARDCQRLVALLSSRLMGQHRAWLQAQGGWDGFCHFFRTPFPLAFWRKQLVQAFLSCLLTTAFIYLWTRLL
`COc1cc(C=C2C(=O)c3ccccc3C2=O)ccc1OCc1ccc(I)cc1`: the displacement was -11.5%.

In the case of `CCOc1ccc(C(=O)Nc2ccc(C(=O)OC)cc2)cc1Br`, the displacement was -7.2%. For `O=C(/C=C/c1ccccc1)NC(=S)Nc1ccc(-c2nc3ncccc3o2)cc1` the value was 12.2%. In the case of `N/C(=N\OC(=O)C(c1ccccc1)c1ccccc1)c1ccccn1` it was 9.5%; in that of `Cc1ccccc1OCCNc1cc(N2CCOCC2)ccc1[N+](=O)[O-]`, 8.4%; in that of `C=CCN1C(=O)/C(=C/c2cccc(Br)c2)SC1=S`, 7.2%. Regarding `CCOC(=O)COc1ccc(/C=c2/sc3nc4cc(C)c(C)cc4n3c2=O)cc1OC`, the displacement is -4.4%. For `Ic1ccc(OCCCCCCN2CCCC2)cc1` the value was 14.8%; for `C/C(=N\N1CCN(Cc2ccc(C)cc2)CC1)c1ccncc1`, 16.9%. On to `O=C(c1ccc(O)cc1)c1ccc(Cl)cc1`, for which the displacement came out at 7.5%. In the case of `COc1ccc(C(=O)Nc2ccc(Br)c(Cl)c2)cc1` it was -9.2%; in that of `COc1ccc(C2Nc3ccccc3NC3=C2C(=O)CC(C)(C)C3)cc1O` (stereo not given), -4%. On to `O=C1NC(=S)NC(=O)C1=Cc1cc(Cl)c(OCc2ccccc2F)c(Cl)c1`, for which the displacement is -0.6%. For `C=CCN1C(=O)S/C(=C/c2cc(Br)c(O)c(OCC)c2)C1=O`, the displacement is -21.9%. Consider `CCOc1ccc2nc(SCC(=O)Nc3cc(C)cc(C)c3)sc2c1`, for which the displacement is -6%. For `COc1cc(/C=C2\C(=O)N(c3nc(-c4ccc(Cl)cc4)cs3)N=C2C)cc(OC)c1OC` the value was 11.6%; for `NC(=S)N(C1=NCCCCC1)c1ccc(Br)cc1`, -5.6%; for `CC1=CC2(C#N)C3(N=C(N)C2(C#N)C(c2ccccc2)N1)OCCO3` (stereo not given), 11.6%. For `O=C(NC(=S)Nc1ccc(Br)cn1)c1ccc(Cl)cc1` the value was 3.5%; for `COc1ccc(C=C2C(=O)N(c3ccccc3)C(=S)N(c3ccccc3)C2=O)c(OC)c1`, 10.9%; for `Cc1ccc(N=Cc2cc(Cl)cc(Cl)c2O)cc1F`, -8.4%. In the case of `Cc1cccc(C2OC3(C(=O)c4ccccc4C3=O)C3C(=O)N(c4ccc(C)c(Cl)c4)C(=O)C23)c1` (stereo not given) it was 14.4%.

On to `CCOc1ccccc1NC(=O)C(=O)NCc1ccncc1`, for which the displacement is 8.9%. In the case of `COc1ccc(N(C(=O)Nc2ccccc2Cl)C(CC(=O)C2CC2)c2ccccc2)cc1` (stereo not given), the displacement worked out at 4.4%. For `COc1cc([N+](=O)[O-])ccc1NC(=O)COc1ccc(Br)cc1`, the displacement is -45.3%.

Take `Cn1ccnc1SCC(=O)Nc1ccccc1F`: the displacement stood at 6.5%. In the case of `CCCOC(=O)c1ccc(NC(=O)COc2ccc(CC)cc2)cc1` it was -1.2%. With `O=C1c2ccccc2C(=O)c2c1cccc2S(=O)(=O)NNc1ccccc1`, the displacement came out at 10.9%.

Regarding `Cc1ccccc1C(=O)Nc1cccc(NC(=O)c2ccc(-c3ccc([N+](=O)[O-])cc3C)o2)c1`, the displacement was found to be 11.5%. Take `O=C1C2C3C=CC(O3)C2C(=O)N1c1ccccc1I` (stereo not given): the displacement was determined as 17.8%.

For the compound `CC1=C(C(=O)Nc2ccccc2)C(c2ccc([N+](=O)[O-])cc2)N2C(=O)CSC2=N1` (stereo not given), the displacement came out at 4.7%. In the case of `Cc1cc(Cl)ccc1OCC(=O)NNC(=O)c1cccnc1` it was -2.4%; in that of `C=CCOC(=O)C1CC=CCC1C(=O)Nc1nc2ccc(OCC)cc2s1` (stereo not given), 5.8%. As for `Cc1ccc(-c2nc3cc(Cl)ccc3o2)cc1NC(=O)/C=C/c1cccc([N+](=O)[O-])c1`, the displacement is -18.8%.

Consider `CCOc1ccccc1NC(=O)c1c(NC(=O)C(F)(F)F)sc2c1CCCCC2`, for which the displacement was -2.4%. For `O=C(Cc1ccc(Br)cc1)N1CCN(c2ccc(F)cc2)CC1` the value was 6.2%; for `CS(=O)(=O)N(Cc1ccc(Cl)cc1)c1ccc(C(=O)NCc2ccncc2)cc1`, 6.5%. Consider `CC(C)(C)OC(=O)N1CC(O)CC1C(=O)NC1CCCCC1` (stereo not given), for which the displacement came out at 0.2%. In the case of `COc1cc(/C=N\NC(=O)COc2ccccc2Cl)cc(OC)c1O` it was -8.1%; in that of `Cc1ccccc1C(=O)N1CC(C)CC(C)C1` (stereo not given), 16.8%; in that of `CC(=O)Nc1ccc(S(=O)(=O)Nc2cccc(Cl)c2)cc1`, -7.3%. As for `Cn1c(COc2ccc(Cl)cc2)nc2ccccc2c1=O`, the displacement is -1.8%. In the case of `CCc1ccc(-n2c(C)cc(/C=C3/NC(=O)NC3=O)c2C)cc1` it was -6.3%.

As for `Cc1ccc(C(=O)Nc2ccccc2C(=O)OCCN2CCCC2=O)cc1`, the displacement worked out at 19.9%. For `CCCC(C)NC(=O)c1ccc(C)c([N+](=O)[O-])c1` (stereo not given) the value was 5.5%; for `COC(=O)c1sc(NC(=O)/C=C/c2cccc([N+](=O)[O-])c2)c(C(=O)OC)c1C`, -0.2%. For `COc1cccc(NC(=O)c2cccc(C(F)(F)F)c2)c1` the value was -9.2%. Take `COc1ccc(C2/C(=C(\O)c3ccccc3)C(=O)C(=O)N2c2cccnc2)cc1OC` (stereo not given): the displacement stood at 4.2%. Turning to `Cc1cc(OCC(=O)Nc2ccc(F)cc2)ccc1Cl`, the displacement came out at 1.6%. As to `Cc1ccc(N/C=C2/CNC(=O)NC2=O)cc1`, the displacement came to 37.8%. In the case of `O=[N+]([O-])c1ccc(O)c(/C=N/Nc2nnc(-c3ccccc3)c(-c3ccccc3)n2)c1` it was 16.8%.

Consider `Cc1cccc(C(=O)Nc2sc3c(c2C(=O)N2CCCC2)CCCCC3)c1`, for which the displacement was -7.4%.

Turning to `O=C(c1cc(Cl)ccc1Cl)N1CCN(c2ccc(F)cc2)CC1`, the displacement was -10.7%. For `COc1ccc(C(=O)Nc2ccc(S(N)(=O)=O)cc2)cc1[N+](=O)[O-]` the value was -7.1%; for `Cc1ccccc1C(=O)NCCCn1ccnc1`, -11%. For `CC(C)OP(=O)(OC(C)C)C(O)c1ccc2c(c1)OCO2` (stereo not given), the displacement stood at 9.4%. As to `CCCCC1CCC(C(=O)NNC(N)=O)CC1` (stereo not given), the displacement was -4.8%. For `COc1ccc(C2CC(=O)C3=C(C2)Nc2ccccc2NC3c2cc(Br)c(OC)c(OC)c2)cc1` (stereo not given) the value was -4.4%; for `CCOc1cc2c(c([N+](=O)[O-])c1)NC(c1ccccc1)C1CC=CC21` (stereo not given), -2%. In the case of `O=C1NC(=S)N(c2ccccc2F)C(=O)/C1=C/c1ccc(I)o1` it was -44.4%; in that of `Cc1ccc(N2CCN(/N=C\c3cccc(Cl)c3Cl)CC2)cc1`, 28%. Take `O=C(Cc1ccccc1)Nc1ncc(Cc2ccc(Cl)c(Cl)c2)s1`: the displacement came out at 0.5%. For `O=S(=O)(N/N=C/c1cccs1)c1ccc(Cl)cc1` the value was 2.5%; for `COc1ccc(-c2nnc(-c3ccc(Br)o3)o2)cc1`, -12.4%; for `Cc1ccc(OCC(=O)Nc2ccc(F)cc2F)c(C)c1`, -4.4%. In the case of `O=C1NC(=S)N(c2ccccc2)C(=O)/C1=C/c1ccc(O)c(Cl)c1` it was 1.2%; in that of `CCOc1c(Br)cc(/C=C2/C(=O)NN(c3ccccc3)C2=O)cc1OC`, 14.7%. `C=C(C)COc1ccc2oc(C)c(C(=O)OCC)c2c1`: the displacement was found to be 8.5%.

On to `N#CC1=C(N)Oc2cc(N)ccc2C1c1ccc(Br)cc1` (stereo not given), for which the displacement is -7.3%. For `CCOC(=O)c1ccc(NS(=O)(=O)c2cc(-c3nnnn3C)ccc2OC)cc1` the value was 5.9%; for `O=C(c1cccc(Nc2nc(-c3ccccc3)c3cc(Cl)ccc3n2)c1)N1CCOCC1`, 4.1%; for `CC(=O)Nc1ccccc1NC(=O)C(c1ccccc1)c1ccccc1`, -2.5%. Turning to `O=C(Nc1cccc2nsnc12)C(c1ccccc1)c1ccccc1`, the displacement came out at 2.8%. As for `COc1cc(/C=C2\C(=O)NC(=S)N(c3ccc(F)cc3)C2=O)ccc1O`, the displacement was -0.2%.

Regarding `COc1cc(C(=O)N/N=C/c2cc(Cl)ccc2O)ccc1O`, the displacement stood at 6.7%. For `Cc1ccc(C(C)NC(=O)c2ccccc2)cc1` (stereo not given) the value was 9.1%; for `Cc1nnc(N/N=C/c2c(O)ccc3ccccc23)[nH]c1=O`, -17%; for `O=C1c2ccccc2C(=O)N1CC(=O)N(Cc1ccccc1)c1cccc([N+](=O)[O-])c1`, -5.7%. In the case of `CCOc1ccc(/C(C)=N/NS(=O)(=O)c2ccccc2)cc1` it was -2.5%; in that of `CCCN1C(=O)C(=Cc2nc3ccccc3c(=O)n2CC)c2cc(Br)ccc21`, -3.2%; in that of `CCOC(=O)c1c(NC(=O)COc2ccccc2C)sc(C(=O)Nc2ccccc2F)c1C`, -0.6%. `O=c1[nH]c(NCCO)nc2sc3c(c12)CCCC3`: the displacement was determined as 3.3%. In the case of `CCCCOc1ccc(NC(=O)CCSc2nccn2C)cc1` it was 13.6%. In the case of `Cc1ccc(C(C)C)c(OCCNC(=O)c2ccc(Cl)cc2Cl)c1` it was 10.7%. In the case of `COc1ccccc1NC(=O)c1c(NC(=O)c2cccc(F)c2)sc(-c2ccccc2)c1C` it was -7.2%; in that of `Cc1cc(=O)n(-c2cccc(C(F)(F)F)c2)n1C`, -3%. Regarding `CC(=NCCN1CCOCC1)c1c(C(F)(F)F)[nH]n(-c2nc3ccccc3s2)c1=O`, the displacement was -8.1%.

As for `O=C(Nc1ccc([N+](=O)[O-])cc1)/C(=C\c1ccc(Br)cc1)NC(=O)c1ccco1`, the displacement was -1.7%. In the case of `COc1ccc(Cl)cc1NC(=O)c1cc2c(C)nn(-c3ccccc3)c2s1` it was -16.2%; in that of `CN(C)/C=C1\N=C(c2ccc(F)cc2)OC1=O`, 7.7%; in that of `NC(N)=NS(=O)(=O)c1ccc(NC(=S)Nc2ccccc2)cc1`, -6%. Consider `O=S(=O)(N/N=C/c1cccc(OC2CSC2)c1)c1ccccc1`, for which the displacement is -1.5%. In the case of `COc1ccccc1C1C(C(=O)OCCc2ccccc2)=C(C)NC2=C1C(=O)CCC2` (stereo not given) it was -8.6%; in that of `C/C(=C(\C#N)C(=O)NCc1ccccc1)N(C)C`, -8.8%. For `NC(=O)NC(CCc1ccccc1)c1ccccc1` (stereo not given), the displacement was determined as 0.5%. As for `O=C(COc1ccccc1)Nc1ccc(S(=O)(=O)N2CCCCCC2)cc1`, the displacement is -10.6%. In the case of `CCOc1ccc2sc(C=NC3CCCCC3)c(O)c2c1`, the displacement is 6.3%. In the case of `COc1ccc(C2C(C(=O)OCCc3ccccc3)=C(C)NC3=C2C(=O)CCC3)cc1` (stereo not given) it was -7.3%.

On to `CC(=O)c1cccc(NC(=O)CSC2=NCCS2)c1`, for which the displacement came to 14.8%.

On to `Cc1ccc(NC(=O)Nc2cccnc2)cc1`, for which the displacement was -3.3%. For `O=C(Nc1ncccc1Cl)c1ccc2c(c1)OCO2` the value was 6.1%. In the case of `Cc1[nH]n(S(=O)(=O)c2ccccc2)c(=O)c1N=Nc1cccc(Cl)c1` it was -13.8%; in that of `C=CCN1C(=O)/C(=C\c2ccc(-c3ccc([N+](=O)[O-])cc3)o2)C(=O)NC1=S`, 12.1%. In the case of `CCCc1cc2c(-c3ccccc3)cc(=O)oc2cc1OCC(=O)O` it was 8.7%; in that of `Cc1sc(NC(=O)Cc2ccccc2)nc1-c1ccccc1`, 6.6%; in that of `COc1ccc(/C=N/NS(=O)(=O)c2ccc(C)cc2)cc1OCc1ccccc1`, -2.7%. As to `O=C(c1ccccc1F)N1CCN(Cc2cccc(F)c2)CC1`, the displacement is -12%. For `CC1(O)CC(=O)C(C(=O)c2ccccc2)C(c2ccc([N+](=O)[O-])cc2)C1C(=O)c1ccccc1` (stereo not given) the value was -3.5%; for `O=C(c1cc2nc(-c3cccs3)cc(C(F)(F)F)n2n1)N1CCc2ccccc2C1`, 13.2%. `COc1ccc(NC(=O)C2=C(C)NC(=S)NC2c2ccc(C)cc2)cc1` (stereo not given): the displacement was 36.2%.
